Experimental data: publication PMC4081100
This is a selection; strong and weak results do not stand in their true shares. For some assays here: At the low end of the ranking, values are background and their order means little. The list shows a part of the results. For some assays here: Construct or isoform of the protein are uncertain.

Legend:
Experiment in all cases: universal protein binding microarray (PBM)
Conditions in all cases: transcription factors of Arabidopsis thaliana; high values mean tight binding; most listed sequences are background and not binding sites; double strand, one strand shown
GST-NTL8 NAC domain = target: T1, GST-NTL8 NAC domain (UniProt Q9XIN7)
T1 sequence: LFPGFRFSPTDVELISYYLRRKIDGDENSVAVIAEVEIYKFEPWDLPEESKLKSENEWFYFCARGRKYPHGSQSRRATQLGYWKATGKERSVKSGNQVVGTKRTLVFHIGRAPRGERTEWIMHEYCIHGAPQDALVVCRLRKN

[1] = target: T2, GST-VOZ2 (Arabidopsis thaliana) (UniProt Q9SLB9)
T2 sequence: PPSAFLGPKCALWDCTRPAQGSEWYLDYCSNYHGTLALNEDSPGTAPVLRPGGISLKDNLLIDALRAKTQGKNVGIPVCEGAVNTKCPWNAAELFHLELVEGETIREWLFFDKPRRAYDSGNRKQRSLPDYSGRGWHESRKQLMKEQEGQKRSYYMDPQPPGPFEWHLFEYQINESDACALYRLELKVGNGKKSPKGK

GST-WRKY1(266-371) = GST-WRKY1(266-371) (UniProt Q9SI37)
GST-ANAC092(1-176) = target: T3, GST-ANAC092(1-176) (UniProt Q9FKA0)
T3 sequence: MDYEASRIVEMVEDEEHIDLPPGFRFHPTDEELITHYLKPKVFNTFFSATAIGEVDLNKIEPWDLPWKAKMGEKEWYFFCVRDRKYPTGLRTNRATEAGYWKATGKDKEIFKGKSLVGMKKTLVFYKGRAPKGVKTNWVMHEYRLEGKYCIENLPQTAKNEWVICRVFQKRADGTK

GST-NTL6(1-168) = GST-NTL6(1-168) (UniProt Q9SCK6)
GST-ATAF1 NAC domain = target: T4, GST-ATAF1 NAC domain (UniProt Q39013)
T4 sequence: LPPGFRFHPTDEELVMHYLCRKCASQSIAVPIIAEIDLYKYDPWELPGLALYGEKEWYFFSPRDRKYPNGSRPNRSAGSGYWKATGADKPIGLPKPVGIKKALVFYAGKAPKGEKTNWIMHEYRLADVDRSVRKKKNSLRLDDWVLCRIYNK

[2] = target: T5, GST-ANAC092(1-285) full length (UniProt Q9FKA0)
T5 sequence: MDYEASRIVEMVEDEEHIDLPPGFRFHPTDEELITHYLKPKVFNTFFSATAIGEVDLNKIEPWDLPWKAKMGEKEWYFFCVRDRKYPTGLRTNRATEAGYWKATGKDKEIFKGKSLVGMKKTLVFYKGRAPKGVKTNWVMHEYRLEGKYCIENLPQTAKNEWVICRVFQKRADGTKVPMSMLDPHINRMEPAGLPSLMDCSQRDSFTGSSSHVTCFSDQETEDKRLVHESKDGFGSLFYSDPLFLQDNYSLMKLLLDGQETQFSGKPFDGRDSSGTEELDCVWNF

GST-NAP(1-166) = target: T6, GST-NAP(1-166) (UniProt O49255)
T6 sequence: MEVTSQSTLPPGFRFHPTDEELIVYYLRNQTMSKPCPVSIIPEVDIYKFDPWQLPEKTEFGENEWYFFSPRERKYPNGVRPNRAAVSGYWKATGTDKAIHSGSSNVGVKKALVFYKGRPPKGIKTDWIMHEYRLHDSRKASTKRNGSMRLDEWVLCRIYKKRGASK

GST-NST2(1-184) = target: T7, GST-NST2(1-184) (UniProt Q9M274)
T7 sequence: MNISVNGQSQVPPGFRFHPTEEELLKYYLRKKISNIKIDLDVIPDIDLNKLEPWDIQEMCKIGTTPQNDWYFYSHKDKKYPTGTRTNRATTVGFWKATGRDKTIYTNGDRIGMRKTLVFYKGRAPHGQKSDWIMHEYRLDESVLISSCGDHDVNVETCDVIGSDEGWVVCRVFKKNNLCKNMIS

GST-ANAC019 NAC domain = target: T8, GST-ANAC019 NAC domain (UniProt Q9C932)
T8 sequence: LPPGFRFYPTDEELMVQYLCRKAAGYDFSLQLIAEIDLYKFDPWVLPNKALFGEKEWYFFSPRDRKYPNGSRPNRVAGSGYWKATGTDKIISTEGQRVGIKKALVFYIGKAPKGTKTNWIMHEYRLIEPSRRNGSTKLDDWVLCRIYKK

GST-ANAC055(1-171) = target: T9, GST-ANAC055(1-171) (UniProt Q9LDY8)
T9 sequence: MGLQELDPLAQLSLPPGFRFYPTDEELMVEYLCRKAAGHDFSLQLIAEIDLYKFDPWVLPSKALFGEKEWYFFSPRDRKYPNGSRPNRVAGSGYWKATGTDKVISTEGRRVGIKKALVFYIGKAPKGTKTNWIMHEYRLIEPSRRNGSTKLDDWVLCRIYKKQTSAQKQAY

Sequence: ACGGAAGC
- binding signal (GST-NTL8 NAC domain): 0.0402 E-score
- binding signal [1]: 0.0581 E-score
- binding signal (GST-WRKY1(266-371)): -0.0309 E-score

Sequence: GACTTTTA
- binding signal (GST-ANAC092(1-176)): 0.0487 E-score
- binding signal (GST-NTL6(1-168)): -0.0791 E-score
- binding signal (GST-ATAF1 NAC domain): 0.17 E-score
- binding signal [2]: 0.141 E-score
- binding signal (GST-NAP(1-166)): 0.00584 E-score
- binding signal (GST-NST2(1-184)): 0.0285 E-score
- binding signal (GST-NTL8 NAC domain): -0.0694 E-score
- binding signal [1]: 0.0331 E-score

Sequence: TCACGCAA
- binding signal (GST-ANAC092(1-176)): 0.488 E-score
- binding signal (GST-ANAC019 NAC domain): 0.467 E-score
- binding signal (GST-NST2(1-184)): 0.396 E-score
- binding signal [1]: 0.181 E-score

Sequence: ACTAAGTA
- binding signal (GST-NTL6(1-168)): 0.429 E-score
- binding signal (GST-NTL8 NAC domain): 0.116 E-score
- binding signal [1]: 0.0484 E-score

Sequence: GCGTGTAA
- binding signal (GST-ANAC055(1-171)): 0.222 E-score
- binding signal [2]: 0.438 E-score
- binding signal (GST-NTL8 NAC domain): 0.025 E-score
- binding signal [1]: 0.187 E-score
- binding signal (GST-WRKY1(266-371)): -0.0493 E-score

Sequence: ACACGACA
- binding signal (GST-ATAF1 NAC domain): 0.339 E-score
- binding signal (GST-NAP(1-166)): 0.36 E-score
- binding signal [1]: -0.0573 E-score
- binding signal (GST-WRKY1(266-371)): 0.0821 E-score

Sequence: GCGTATAA
- binding signal (GST-ATAF1 NAC domain): 0.229 E-score
- binding signal (GST-NST2(1-184)): 0.285 E-score
- binding signal [1]: 0.155 E-score
- binding signal (GST-WRKY1(266-371)): -0.105 E-score

Sequence: TGACGTAA
- binding signal (GST-ANAC092(1-176)): 0.449 E-score
- binding signal (GST-NTL6(1-168)): 0.0202 E-score
- binding signal (GST-ANAC019 NAC domain): 0.368 E-score
- binding signal [1]: 0.134 E-score

Sequence: AATAGCGT
- binding signal (GST-NTL6(1-168)): 0.0443 E-score
- binding signal (GST-ANAC019 NAC domain): 0.0147 E-score
- binding signal [2]: 0.412 E-score
- binding signal (GST-NST2(1-184)): 0.261 E-score
- binding signal (GST-NTL8 NAC domain): -0.0702 E-score
- binding signal [1]: 0.17 E-score

Sequence: TCACGTCA
- binding signal (GST-NTL6(1-168)): -0.07 E-score
- binding signal (GST-ANAC055(1-171)): 0.354 E-score
- binding signal (GST-NST2(1-184)): 0.188 E-score
- binding signal (GST-NTL8 NAC domain): -0.0823 E-score
- binding signal [1]: 0.0745 E-score

Sequence: GTTTCGTA
- binding signal (GST-NST2(1-184)): 0.163 E-score
- binding signal [1]: 0.0291 E-score
- binding signal (GST-WRKY1(266-371)): -0.138 E-score

Sequence: GAAGTAAA
- binding signal (GST-ANAC055(1-171)): 0.107 E-score
- binding signal (GST-NAP(1-166)): 0.0102 E-score
- binding signal (GST-NTL8 NAC domain): 0.222 E-score
- binding signal [1]: 0.0837 E-score
- binding signal (GST-WRKY1(266-371)): -0.0673 E-score

Sequence: ACACGTCT
- binding signal (GST-NTL6(1-168)): -0.0468 E-score
- binding signal (GST-ANAC019 NAC domain): 0.459 E-score
- binding signal [2]: 0.425 E-score
- binding signal (GST-NAP(1-166)): 0.346 E-score
- binding signal (GST-NTL8 NAC domain): 0.00117 E-score
- binding signal [1]: -0.0679 E-score

Sequence: ACGCAACC
- binding signal (GST-ANAC092(1-176)): 0.483 E-score
- binding signal (GST-NTL6(1-168)): 0.0242 E-score
- binding signal (GST-NAP(1-166)): 0.478 E-score
- binding signal (GST-NTL8 NAC domain): 0.146 E-score
- binding signal [1]: 0.353 E-score

Sequence: CACGAAAG
- binding signal (GST-ANAC092(1-176)): 0.407 E-score
- binding signal (GST-NTL6(1-168)): 0.109 E-score
- binding signal (GST-ANAC019 NAC domain): 0.25 E-score
- binding signal [2]: 0.411 E-score
- binding signal (GST-NTL8 NAC domain): 0.121 E-score
- binding signal [1]: 0.037 E-score

Sequence: GTACGTCA
- binding signal (GST-ANAC019 NAC domain): 0.413 E-score
- binding signal (GST-NAP(1-166)): 0.363 E-score
- binding signal (GST-NST2(1-184)): 0.244 E-score
- binding signal [1]: 0.163 E-score

Sequence: GATTGACC
- binding signal (GST-NTL6(1-168)): 0.0275 E-score
- binding signal (GST-ANAC019 NAC domain): -0.0933 E-score
- binding signal (GST-ANAC055(1-171)): 0.0576 E-score
- binding signal (GST-ATAF1 NAC domain): -0.0274 E-score
- binding signal (GST-NAP(1-166)): -0.186 E-score
- binding signal (GST-NST2(1-184)): 0.0322 E-score
- binding signal (GST-NTL8 NAC domain): 0.017 E-score
- binding signal [1]: 0.0949 E-score

Sequence: AAGTAAGT
- binding signal [2]: 0.259 E-score
- binding signal (GST-NAP(1-166)): 0.135 E-score
- binding signal (GST-NTL8 NAC domain): 0.267 E-score
- binding signal [1]: 0.0851 E-score
- binding signal (GST-WRKY1(266-371)): 0.2 E-score

Sequence: ACGTAACC
- binding signal (GST-NST2(1-184)): 0.338 E-score
- binding signal (GST-NTL8 NAC domain): 0.328 E-score
- binding signal [1]: -0.0476 E-score
- binding signal (GST-WRKY1(266-371)): -0.0534 E-score

Sequence: ACGTAAGC
- binding signal (GST-ANAC055(1-171)): 0.406 E-score
- binding signal (GST-NAP(1-166)): 0.428 E-score
- binding signal (GST-NTL8 NAC domain): 0.205 E-score
- binding signal [1]: 0.0331 E-score
- binding signal (GST-WRKY1(266-371)): -0.0387 E-score

Sequence: GCACGTCA
- binding signal (GST-NTL6(1-168)): -0.0423 E-score
- binding signal (GST-ATAF1 NAC domain): 0.317 E-score
- binding signal (GST-NAP(1-166)): 0.341 E-score
- binding signal (GST-NTL8 NAC domain): -0.0746 E-score
- binding signal [1]: -0.018 E-score

Sequence: CTTTCTTC
- binding signal (GST-ANAC019 NAC domain): -0.0287 E-score
- binding signal (GST-ANAC055(1-171)): -0.0203 E-score
- binding signal (GST-NTL8 NAC domain): 0.41 E-score
- binding signal [1]: -0.15 E-score

Sequence: CTACGTTA
- binding signal (GST-NAP(1-166)): 0.135 E-score
- binding signal (GST-NTL8 NAC domain): -0.052 E-score
- binding signal [1]: 0.0548 E-score

Sequence: ACAAGTCA
- binding signal (GST-NTL6(1-168)): 0.0563 E-score
- binding signal (GST-ANAC019 NAC domain): -0.124 E-score
- binding signal (GST-ANAC055(1-171)): 0.0275 E-score
- binding signal (GST-ATAF1 NAC domain): -0.0196 E-score
- binding signal (GST-NAP(1-166)): 0.146 E-score
- binding signal (GST-NTL8 NAC domain): 0.0517 E-score
- binding signal [1]: 0.00717 E-score

Sequence: CTACGTCA
- binding signal (GST-NTL6(1-168)): -0.0406 E-score
- binding signal (GST-ANAC019 NAC domain): 0.133 E-score
- binding signal (GST-ANAC055(1-171)): 0.129 E-score
- binding signal (GST-NAP(1-166)): 0.148 E-score
- binding signal (GST-NTL8 NAC domain): -0.238 E-score
- binding signal [1]: -0.0839 E-score

Sequence: AACACGTC
- binding signal (GST-NTL6(1-168)): -0.0491 E-score
- binding signal (GST-NTL8 NAC domain): -0.0308 E-score
- binding signal [1]: -0.098 E-score
